# According to patent US6818445B2 (Synaptic Pharmaceutical Corporation, priority 1994, dated 2004):
# What was measured:
# [1] = biological target: T1, human Y5 receptor (Homo sapiens, UniProt Q15761); assay: Binding affinity of compounds vs. 125I-PYY at the cloned human Y5 receptor; conditions: read-out: Binding Affinity (Ki (nM) vs. ^125I-PYY) Human Receptor Y5; Table 14
# T1 sequence (Q15761 1-445): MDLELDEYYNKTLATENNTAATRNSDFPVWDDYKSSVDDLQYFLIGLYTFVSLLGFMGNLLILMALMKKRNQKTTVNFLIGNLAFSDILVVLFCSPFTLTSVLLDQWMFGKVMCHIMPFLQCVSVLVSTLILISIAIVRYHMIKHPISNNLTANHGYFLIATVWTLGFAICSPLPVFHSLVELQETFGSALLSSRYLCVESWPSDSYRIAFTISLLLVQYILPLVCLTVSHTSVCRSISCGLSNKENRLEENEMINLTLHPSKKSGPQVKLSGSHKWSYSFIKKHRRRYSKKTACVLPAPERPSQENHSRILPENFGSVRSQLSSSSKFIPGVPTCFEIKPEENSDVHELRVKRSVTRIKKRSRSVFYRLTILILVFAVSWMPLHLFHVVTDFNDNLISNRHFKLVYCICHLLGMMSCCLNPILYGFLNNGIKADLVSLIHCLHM
# [2] = biological target: T1, human Y5 receptor; conditions: block of NPY-induced inhibition of cAMP accumulation, forskolin-stimulated LM(tk-) cells
# [3] = biological target: T1, human Y5 receptor; format: binding; conditions: Gpp(NH)p 1 nM to 100 μM, 0.08 nM 125I-PYY
# Description: FIG. 19 Guanine Nucleotide Modulation of Y5 Peptide Binding. […] Radioligand binding is reported as cpm, efficiency=0.8. For the human Y5 in LM(tk-) (0.007 mg membrane protein/sample), the maximum Δcpm=−2343. Given a specific activity of 2200 Ci/mmol, the change in radioligand binding is therefore calculated to be −0.6 fmol/0.007 mg protein=−85 fmol/mg membrane protein.
# For a given G protein-coupled receptor, a portion of the receptor population can typically be characterized in the high affinity ligand binding site using discriminating agonists. The binding of GTP or a non-hydrolyzable analog to the G protein causes a conformational change in the receptor which favors a low affinity ligand binding state.
change in radioligand (125I-PYY) binding [3] [fmol/mg membrane protein],SMILES,Ki [1] [nM],Kb [2] [nM]
,Cl.O=S(=O)(NCC1CCC(CNCc2cccc3ccccc23)CC1)c1ccccc1C(F)(F)F (centres unmarked) [Compound 23],26,38
,Cl.O=S(=O)(NC[C@H]1CC[C@H](CNCC2CCc3ccccc3C2)CC1)c1cccc2ccccc12 (some centres unmarked) [Compound 19],11,23
,Cl.O=S(=O)(NCC1CCC(CNCc2ccc3ccccc3c2)CC1)c1ccccc1C(F)(F)F (centres unmarked) [Compound 21],9.8,16
,Cl.Cl.Nc1ccccc1S(=O)(=O)NCC1CCC(CNCC2CCc3ccccc3C2)CC1 (centres unmarked) [Compound 22],11,3
,Cl.O=[N+]([O-])c1ccccc1S(=O)(=O)NC[C@H]1CC[C@H](CNCC2CCc3ccccc3C2)CC1 (some centres unmarked) [Compound 20],8.3,26
−85,Nc1nc2c(ncn2[C@@H]2O[C@H](COP(=O)(O)OP(=O)(O)NP(=O)(O)O)[C@@H](O)[C@H]2O)c(=O)[nH]1 [Gpp(NH)p],,
